The other results are listed elsewhere or left out.

For the test, the system named is T1, C. trachomatis L2/434/Bu expressing GFP (CTL2-GFP).
T1 construct: L2/434/Bu GFP intracellular growth in HeLa cells
On the set-up: species or system HeLa; C. trachomatis total inclusion area by high-content imaging, normalised to DMSO. Particulars: total inclusion area; 28.5 h, 10 µM; inhibitor. The gist of the method: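 High-content imaging followed the bulk GFP/resorufin measurement: fixed, Hoechst-stained cells were scored for GFP inclusions and host nuclei per well. Total inclusion area and count served as growth proxies, nuclei number as the viability proxy. MIC calculation matched the bulk assay.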
For the molecule `C/C(=N/Nc1ccc([N+](=O)[O-])cc1[N+](=O)[O-])C1CC1` [CBK260921], the “% of control remaining” value is given as 103.267.
Regarding `Cc1ccccc1C(NC(=O)C1CCN(C(=O)c2ccccc2)CC1)c1ccccn1` (centres unmarked) [CBK059720], the “% of control remaining” value is on record as 99.8369.
In the case of `O=S(=O)(N1CCCCC1)N1CCCN(S(=O)(=O)N2CCCCC2)CC1` [CBK268939], the “% of control remaining” value was 92.199.
For `CC(C)CNc1nnc(-c2ccccc2[N+](=O)[O-])s1` [CBK076755], the “% of control remaining” value is 102.514.
As to `O=C(N[C@H]1CO[C@H]2[C@@H]1OC[C@@H]2n1nnnc1Oc1ccc(-n2ccnc2)cc1)c1ccco1` [CBK289486], the “% of control remaining” value is listed as 120.469.
On to `O=C(NCc1ccccc1)C1CCN(C(=O)Cc2c(F)cccc2Cl)CC1` [CBK297919], for which the “% of control remaining” value came to 81.7317.
The value for `Cc1ccc(-c2noc(CSc3nnc(-c4ccncc4)n3-c3ccc(C)cc3)n2)cc1` [CBK268879] was 79.2179; that for `COc1ccc(C[C@@]23CCC(=O)C[C@@H]2N(C)CC3)cc1` [CBK009720] was 107.948; that for `O=C(N/N=C/c1ccc([N+](=O)[O-])cc1)c1ccccc1Cl` [CBK261775] was 93.4928.
On to `Cn1c(=O)c2c(nc(CN3CCCCC3)n2CCN2CCOCC2)n(C)c1=O` [CBK269281], for which the “% of control remaining” value is reported as 129.493.
For the molecule `O=C(O)CCN1CCCCC1` [CBK012168C], the “% of control remaining” value came to 84.682.
As for `CC(C)NC(=O)NC[C@H]1C[C@@H]2CCN1C[C@@H]2c1cc(-c2ccccc2)nn1C` [CBK289097], the “% of control remaining” value is reported as 102.656.
The result for `Cc1cccn2c(=O)cc(CN3CCCC(N4CCNC4=O)C3)nc12` (centres unmarked) [CBK304947] reads 98.9322.
The result for `Cc1cc(Cl)cc(Cl)c1S(=O)(=O)Nc1nc2c(s1)CN(C(=O)N1CCOCC1)CC2` [CBK000931] reads 112.208.
On to `Cc1ccc2nc(C(=O)O)cc(OCC(=O)Nc3ccccc3F)c2c1` [CBK287255], for which the “% of control remaining” value came to 69.3613.
For the molecule `CC(NC(=O)N1CCSCC1)c1cccc(N2CCCC2)c1` (centres unmarked) [CBK305230], the “% of control remaining” value was found to be 54.8808.
As to `OC(COc1cccc2c1CCCC2)CN1CCC(O)(c2ccc(Cl)c(C(F)(F)F)c2)CC1` (centres unmarked) [CBK003581], the “% of control remaining” value worked out at 43.1428.
On to `COCCn1c(CO)nnc1[C@H]1C[C@@H](NC(=O)c2cc(F)ccc2F)C1` [CBK307032], for which the “% of control remaining” value is on record as 29.2846.
Regarding `CCOC(=O)c1cnc2ccc(Br)cc2c1NCc1cccnc1` [CBK265030], the “% of control remaining” value was found to be 119.428.
Regarding `Cc1nc(CCNCc2c(C(C)C)nn(C)c2N(C)C)cs1` [CBK304002], the “% of control remaining” value came to 47.5368.
On to `Cc1cc(C)nc(NCCC(=O)O)n1` [CBK270154], for which the “% of control remaining” value was found to be 98.9599.
Consider `CN(CC(=O)C(C#N)c1ccccc1)Cc1ccccc1` (centres unmarked) [CBK269432], for which the “% of control remaining” value came to 68.8058.
The result for `O=C(CN1CCC(c2cccc(Cc3cccc(F)c3)n2)CC1)Nc1nccs1` [CBK286090] reads 83.0834.
As for `CC(C)c1ccc(S(=O)(=O)NCCC(C)(C)C)cc1` [CBK043640], the “% of control remaining” value was found to be 90.5474.
Take `CC(C)NC(=O)CN1C(=O)N2CCCN=C2c2ccc(Cl)cc21` [CBK284390]: the “% of control remaining” value was 86.343.
Consider `O=C1C2(Cc3ccccc3)CN3CN(C2)CC1(Cc1ccccc1)C3` [CBK261341], for which the “% of control remaining” value is listed as 95.8608.
The result for `O=C1C[C@@H]2CCN(C(=O)COc3ccccc3)C[C@@H]2CCN1Cc1cccnc1` [CBK288793] reads 105.72; that for `Cc1cnn(CC2CC2)c1NC(=O)Cc1csc(N2CCCC2=O)n1` [CBK304940], 68.3333; that for `CCN1CCC(NCc2ccc(OCC(N)=O)cc2)CC1` [CBK306106], 52.7706.
In the case of `CC(CC(=O)O)n1nnc2ccccc21` (centres unmarked) [CBK264139], the “% of control remaining” value came out at 102.409.
For the molecule `O=C(Cc1ccccc1)Nc1ccc(C(=O)O)cc1NC(=O)Cc1ccccc1` [CBK287049], the “% of control remaining” value is recorded as 56.1677.
Consider `CCC(C)(C)c1nnc(NC(=O)COc2ccc(Cl)cc2Cl)s1` [CBK058435], for which the “% of control remaining” value is given as 36.9844.
Take `COc1ccc(C(c2ccccn2)N(C)C(=O)C2CCN(S(=O)(=O)C(C)C)CC2)cc1` (centres unmarked) [CBK060280]: the “% of control remaining” value is on record as 94.7025.
The value for `COc1ccc(-c2cnc(Nc3ccc(N4CCOCC4)cc3)c3nccn23)cn1` [CBK091238] was 152.66; that for `FC(F)C(F)(F)Oc1cccc(Nc2nccn3ccnc23)c1` [CBK066284] was 81.8788.
On to `Cn1cnnc1SCC(=O)N1CCc2ccccc21` [CBK287576], for which the “% of control remaining” value is 108.666.
Take `O=C(CC1CCCCC1)N1CCC(n2nc(C3CC3)ccc2=O)CC1` [CBK284241]: the “% of control remaining” value stood at 107.522.
For `O=C(CC(CN1CCN(Cc2cccc(Cl)c2)CC1)C(=O)O)Nc1cccc(O)c1` (centres unmarked) [CBK286811], the “% of control remaining” value is given as 96.3122.
`c1cnc2c(-c3cn4ccnc4c(NC4CC4)n3)cccc2c1` [CBK037911]: the “% of control remaining” value was found to be 84.99.
The result for `O=C(CSCc1ccc(Br)cc1)NCC1CCCO1` (centres unmarked) [CBK268506] reads 129.401; that for `CC(C)NC(=O)CCn1c(-c2ccncc2)cc2cccnc21` [CBK284931], 97.7414.
The value for `O=C(Nc1ccc(C(=O)Nc2cccc(-c3nc4ccccc4o3)c2)cc1)c1ccc([N+](=O)[O-])cc1` [CBK262606] was 111.539; that for `COC(=O)c1c(NC(=S)NCc2ccccn2)sc(C(=O)N(C)C)c1C` [CBK267055] was 117.19.
Consider `c1nc(NCCN2CCOCC2)c2c3c(sc2n1)CCCCC3` [CBK268418], for which the “% of control remaining” value turned out to be 84.542.
As for `COc1ncccc1C(=O)Nc1ccc(C)nc1C` [CBK200292], the “% of control remaining” value is on record as 90.3542.
As for `COc1ccc(S(=O)(=O)Nc2cccc(C(=O)N3CCOCC3)c2)cc1OC` [CBK039010], the “% of control remaining” value turned out to be 78.6919.
For the molecule `CC(NC(=O)CCC(=O)O)C12CC3CC(CC(C3)C1)C2` (centres unmarked) [CBK287105], the “% of control remaining” value was found to be 99.824.
For the molecule `Cn1cc(C2C[S+]([O-])CCN2Cc2csc3ccccc23)cn1` (centres unmarked) [CBK304085], the “% of control remaining” value amounted to 44.0749.
`c1ccc2c(c1)OCC(c1nn3cnnc3s1)O2` (centres unmarked) [CBK269277]: the “% of control remaining” value was 77.199.
Take `COc1ccc(NC(=O)CCC(=O)N2CCC(C(=O)O)CC2)cc1` [CBK286588]: the “% of control remaining” value is 37.6799.
With `CCCOC1CCCN(Cc2c(C)n(CC(N)=O)c3ccccc23)C1` (centres unmarked) [CBK282797], the “% of control remaining” value is reported as 108.943.
As for `COc1ccc(NC(=O)NS(=O)(=O)c2sc3ccc(Cl)cc3c2C)cc1OC` [CBK156300], the “% of control remaining” value is recorded as 104.544.
As to `COc1ccc(CCNC(=O)c2cnc3sc(C)cn3c2=O)cc1OC` [CBK287709], the “% of control remaining” value is 80.0925.
With `O=C1N/C(=N/N=C\c2cccc([N+](=O)[O-])c2)SC1Cc1ccc(Br)cc1` (centres unmarked) [CBK263125], the “% of control remaining” value is recorded as 97.3414.
For the molecule `O=C1CC(N2CCN(c3ccccn3)CC2)C(=O)N1CCc1ccccc1` (centres unmarked) [CBK262282], the “% of control remaining” value is given as 93.1981.
For `FC(F)(F)c1cc(-c2cc(N3CCC(N4CCCCC4)CC3)ncn2)cc(C(F)(F)F)c1` [CBK037692], the “% of control remaining” value amounted to 76.3721.
For the molecule `CCNC(=O)C1CCCN(Cc2ncc(C)c(OC)c2C)C1` (centres unmarked) [CBK305081], the “% of control remaining” value is listed as 33.9406.
With `NNC(=O)CSc1nnc(-c2ccccc2)n1-c1ccccc1` [CBK223486], the “% of control remaining” value is on record as 107.482.
With `O=C(CSc1nnc(-c2ccncc2)n1-c1ccc(Cl)cc1)Nc1ccccc1-c1ccccc1` [CBK266205], the “% of control remaining” value is listed as 98.477.
With `CCCCCn1c(=O)c(-c2nc3ccccc3c(=O)[nH]2)c(O)c2ccccc21` [CBK291215], the “% of control remaining” value is 94.3442.
The result for `CCOC(=O)c1cnc2ccccc2c1NCCN1CCOCC1` [CBK304328] reads 117.346; that for `FC(F)(F)Oc1ccccc1-c1nnc(NC2CCCCCC2)s1` [CBK074041], 114.23.
The result for `CN1CCC2(CC1)CN(C(=O)C1CC1)Cc1ccccc1O2` [CBK284967] reads 85.817.
For `O=[N+]([O-])c1cc(-c2nc(-c3ccco3)c(-c3ccco3)[nH]2)ccc1Br` [CBK019778], the “% of control remaining” value is reported as 106.085.
As to `CC1CCN(S(=O)(=O)c2cccc(S(=O)(=O)c3cccc(S(=O)(=O)N4CCC(C)CC4)c3)c2)CC1` [CBK261731], the “% of control remaining” value worked out at 87.1015.
Turning to `CCN1C(=O)CC2(C1=O)C(=O)N(CCCOc1ccccc1OC)c1ccccc12` (centres unmarked) [CBK075498], the “% of control remaining” value stood at 93.9519.
Regarding `Cc1nc2c(c(=O)[nH]1)CN(Cc1ccc(Cl)cc1)CC2` [CBK282415], the “% of control remaining” value is on record as 101.389.
As for `c1cnc2[nH]c([C@H]3CCCO3)c(CN3CCCCC3)c2c1` [CBK282284], the “% of control remaining” value is reported as 102.962.
As for `CC(C)c1ccc(/C=C/C(=O)NCc2ccc(NS(C)(=O)=O)cc2)cc1` [CBK161512], the “% of control remaining” value turned out to be 37.8151.
For the molecule `CC(C)(C)c1cc(C(=O)NCCN)n(Cc2ccc(Cl)cc2Cl)n1` [CBK116631T], the “% of control remaining” value is recorded as 56.4761.
For the molecule `O=C(O)c1cccc(Cn2ccc3c(F)cccc32)c1` [CBK003453], the “% of control remaining” value is reported as 128.177.
The result for `O=c1[nH]c2ncc(-c3ccc(OC(F)(F)F)cc3)nc2n1Cc1ccc(Cl)cc1` [CBK064409] reads 100.594.
Take `CN1CCN(c2nccnc2-c2ccccc2)CC1` [CBK088825]: the “% of control remaining” value was 102.75.
The value for `Cc1sc2nc(SCC(=O)c3c[nH]c4ccccc34)nc(O)c2c1C` [CBK264068] was 114.764; that for `O=C1CCC(C(=O)N2CCCC(c3cc4ccccc4cn3)C2)CC1` (centres unmarked) [CBK284989] was 105.986; that for `CC(=O)Nc1cccc(NC(=O)CN(C)S(=O)(=O)c2ccc(F)cc2)c1` [CBK269951] was 73.7377.
The result for `Cc1ccc(Sc2nccn3c(=O)[nH]nc23)c(C)c1` [CBK288055] reads 85.8707; that for `CN(C)CC1CN(C(=O)Cc2ccccc2F)Cc2ccccc2O1` (centres unmarked) [CBK285327], 84.2744.
As to `CC1CN(S(=O)(=O)C(C)C)CCC1NCc1ccncc1` (centres unmarked) [CBK304870], the “% of control remaining” value amounted to 62.5872.
The result for `Cc1csc(Sc2nccc(C(F)(F)F)n2)n1` [CBK093770] reads 80.944.

Values taken from publication PMC12040169 (PLOS Biology, 2025).
